Sequences and labels used below:
B1: LINE1-mini (parent)
chain: GGCAGAGCUCAACACAGCGUGGCAAAGUGGCUGUGGCUAGACUGCC

The source gives no read counts; variants with many changes may rest on few reads.

The variants in this data set derive from B1. The experiment in a line: self-cleavage, relative activity (ratio to wild type); higher = more cleavage; in vitro, sequencing; the parent is a self-cleaving ribozyme.
With G1C G5A A25U G27U C46A, the self-cleavage worked out at 0.02. In the case of G1C A12U G17C A25C U43C, the self-cleavage turned out to be 0.01. Consider G1C G2U G27A G35U, for which the self-cleavage amounted to 0.06. In the case of G1C A11G C13G A16C, the self-cleavage worked out at 0.01.

G1A C18A A26U G30A A41C: the self-cleavage came out at 0.14. In the case of G1A G7C G29U G30U U32A, the self-cleavage came out at 0.16.

For G1C C13A G17A G30C G33C U34A G44U, the self-cleavage stood at 0. G1C A12C C37A G44A C46A: the self-cleavage was 0. As for G1C A4U G5A C8G U38A, the self-cleavage worked out at 0.02. On to G1A G2C U9G C10G C23U, for which the self-cleavage turned out to be 0. Take G1A G17U C23U A26G: the self-cleavage is 0.08. For G1C C3G U9G C15A, the self-cleavage was 0.02. Consider G1A C18A A26U G27U G30C, for which the self-cleavage amounted to 0.92.

In the case of G1C C10A C13A G30A, the self-cleavage was 0.01. With G1A G2U G19U C42U, the self-cleavage came out at 0.02. To G1C A14U U20C G40A G44C belongs 0.01; to G1A G5U C15A G27A G29U C37G, 0.01; to G1C G5C A41G, 0.07. Regarding G1A U32G G44C, the self-cleavage is 0.07.

With G1C G2U C8U C18U A25G C42G, the self-cleavage was 0.01. Consider G1C G5A U20A, for which the self-cleavage is 0.01. Turning to G1C A4G C15A A24U U34A, the self-cleavage came to 0.03. For G1C A16U U28G G44U, the self-cleavage was found to be 0.02. Next, G1A C10U C42G: 0.09; G1A C15U C23A G36C C46U: 0.19. Regarding G1C C13A G33U, the self-cleavage was determined as 0.01. Consider G1A C13U C42G, for which the self-cleavage came out at 0.06. For the variant G1A G27A U28G, the self-cleavage turned out to be 0.41. For G1C C13A G27A C42A, the self-cleavage came to 0.02. To G1C C8U C13A G17A G19U U20C A41G belongs 0.01; to G1A G33C C42A, 0.

Turning to G1A U9G G17C C18G G29A G40A, the self-cleavage is 0.05. For G1A C31U G44C, the self-cleavage is 0.04. In the case of G1A G19U U28C C37G, the self-cleavage worked out at 0.01. Next, G1A C10U A12U C31A C46U: 0.11; G1A C15G A41C: 0.05. In the case of G1C C8A A11U A14U G21C C23U U32C, the self-cleavage is 0.01. To G1C G2A A11G G27U C31G belongs 0.01; to G1C C10A G27U, 0; to G1A C15U G33U G35U, 0.11.

Turning to G1C C8U A39C C46U, the self-cleavage is 0.08. Turning to G1A U32A C42U, the self-cleavage was 0.17. For G1A U20C U38A, the self-cleavage was 0.35. Next, G1C A6G G17A U20A A26G: 0.01; G1A G22A U32C U43A: 0.07; G1C C3A G5U G29C U34A: 0.06.

Turning to G1A G2U C3U A16U G36C G44C, the self-cleavage was 0.01. G1A G7C C18U A25U U28A G36C C37G A39G C45G: the self-cleavage was 0.02.

For the variant G1A C23U U28G, the self-cleavage was 0.07. On to G1C C18A U32G C46U, for which the self-cleavage was found to be 0. As for G1A C23G G33U, the self-cleavage stood at 0.65. As for G1A C15A C45A, the self-cleavage was 0.02. Take G1C C3A C8A A14G G29U G36C C37G: the self-cleavage stood at 0.09. As for G1A C13A C18G, the self-cleavage is 0.06. For G1C G2U C23U G36U, the self-cleavage stood at 0.02. For the variant G1A G17A U20G U34A U43A, the self-cleavage was determined as 0.04. In the case of G1A G2C C45G, the self-cleavage is 0.59. With G1A G5U A6C G19U G30U G44A, the self-cleavage was determined as 0.05. Take G1C A11G C23A G29C: the self-cleavage turned out to be 0.01. Turning to G1C C31G G44U, the self-cleavage was found to be 0. As for G1A G29C U43G, the self-cleavage turned out to be 0.

For G1C G2C G5A A24G G29C C31A C42G U43G, the self-cleavage was 0.03.

Consider G1C C3A C13U A16G G22U U43A, for which the self-cleavage was found to be 0.01.

With G1C G5C G7C C13U, the self-cleavage came to 0.02. Next, G1C A25C U28G G40C: 0; G1A C10U A11C A16C: 0.02; G1C G2C G19C U32A U34G A41G: 0.

For the variant G1C C3A G7A C46A, the self-cleavage amounted to 0.21.

As to G1C A4U A12G G44C, the self-cleavage is 0.01. As to G1C C3A G30C, the self-cleavage came to 0.05. Next, G1C A4U C15U C18G G22C C37U: 0.01.

Regarding G1C C15A C23U G29A, the self-cleavage was 0.03.

On to G1C C37A G40C, for which the self-cleavage worked out at 0.06. As for G1C C8G U28G C42A, the self-cleavage came to 0.02. Next, G1A G22U U43C: 0.14.

For G1C A6G G22A A39G C46U, the self-cleavage was 0.01. Regarding G1C A14U U32G, the self-cleavage was determined as 0.01.

As to G1C C10A A25C, the self-cleavage was determined as 0.01. On to G1A C15A U28A C31G, for which the self-cleavage came to 0.02. For G1A C13U C23A, the self-cleavage was determined as 0.38.

Take G1C C42G C46G: the self-cleavage came out at 0.01. Consider G1A G5A C15G A24G, for which the self-cleavage amounted to 0.1.

As to G1A G5C G21C C31A G35U, the self-cleavage is 0.02.

Regarding G1A G22C U43A, the self-cleavage is 0.03. In the case of G1A U9A A24U G27C G36A, the self-cleavage was determined as 1.84. To G1C G2C G5C belongs 0.02. G1C C8G G19C: the self-cleavage was 0.02.

Consider G1A C15G G17A, for which the self-cleavage stood at 0.03. On to G1C C8U G33U, for which the self-cleavage was determined as 0.02.

For the variant G1C G2U G30C, the self-cleavage worked out at 0.06. To G1C A6C G27U G44U belongs 0.02; to G1A G19C U20G, 0.5. To G1C A4U C23U C37G U43G belongs 0. To G1C C3A A11G C23U A24U C31U G33C A41C belongs 0.02; to G1A U9A C18G A24G U28A G35U C42U, 0.2. On to G1C G5U A6C U34G, for which the self-cleavage came out at 0.01. Regarding G1C A12C G30A G36C, the self-cleavage worked out at 0.01. G1C C37U C42A: the self-cleavage worked out at 0.01.

With G1A U9C G22A A26U U34C, the self-cleavage stood at 0.07. Turning to G1C C10A G27C C45U, the self-cleavage was 0.02. As for G1A C31G A39U G40C, the self-cleavage stood at 0.03.

For G1A G5C A14C U20A C46U, the self-cleavage amounted to 0.04. To G1A G33C G35U C37G belongs 0.04.

Regarding G1C A4C U34A, the self-cleavage was 0.02. For G1A G2A C15G G36U, the self-cleavage came to 0.21. To G1A G22C G33A belongs 0.02. Regarding G1C C3U C10A A16C U34C G36U, the self-cleavage was 0.02. Next, G1C A14U G19A A26C: 0.11. For G1C C13U C18G A25U G27U G30U G40C, the self-cleavage was 0.07. To G1A G5U A12U G36C belongs 0.03; to G1C A14C C23A, 0.06; to G1C G2A C8G U9G G21A C31G, 0.02. As for G1C A6G U32G U43C, the self-cleavage was determined as 0. Take G1A C13U A39U: the self-cleavage amounted to 0.07. As for G1C C3U G29U C37A A41C, the self-cleavage is 0.02.

For the variant G1C C10A C13U G17A U34G U38C, the self-cleavage is 0. As to G1A G7C A39C, the self-cleavage came to 1.28. Consider G1C C13G A39G G40U, for which the self-cleavage was 0.03. With G1A U9G G29U, the self-cleavage was 0.54. For the variant G1C C3U A26G A41G, the self-cleavage worked out at 0.08. For G1A U32A C37U C46U, the self-cleavage worked out at 0.04. As to G1C C8G A12G A25C, the self-cleavage turned out to be 0.01. On to G1C A16U C18A C31A C37U, for which the self-cleavage amounted to 0.

Consider G1A G2C G21C A41U C42G U43A, for which the self-cleavage came to 0.02. To G1C C3A U34A belongs 0.04; to G1A G29U G40A, 0.22; to G1A G17C A39G C46A, 0.09. Next, G1C C10A C31U G35U C37U G40U: 0; G1C C3A C13U G40U: 0.14.

G1C A14U U20A: the self-cleavage was found to be 0.08. For G1A G2A G17U G19U A26U, the self-cleavage is 0.41. As to G1C C13G G19C, the self-cleavage was 0.01. For G1A G7C G21U C37U, the self-cleavage turned out to be 0.2. As for G1C C10A A14U G40U U43G, the self-cleavage worked out at 0.01.

For the variant G1A U9A C13G, the self-cleavage came to 0.52. To G1C A25C U32C G33C G35C belongs 0.01. On to G1C A12G G35U, for which the self-cleavage was 0.01. Consider G1C C3U G36C C37G G44U, for which the self-cleavage is 0.03. Regarding G1A G7C G17C, the self-cleavage amounted to 0.71.

With G1C G2U C13A A16U G30U C31G A41C, the self-cleavage worked out at 0.09. Consider G1A G2U C31U A41G G44U, for which the self-cleavage is 0.02.

Regarding G1A G5C G17U G27C C31A U38C, the self-cleavage was 0.03.

As to G1C A11G G35U A41C, the self-cleavage was 0.01.

For the variant G1C C31U U32C, the self-cleavage came to 0.12. As to G1C C10U C13U U32A, the self-cleavage worked out at 0.02.

Turning to G1C A16C C18A A25C, the self-cleavage came to 0. In the case of G1A U20A C23A U28C U43C, the self-cleavage amounted to 0.05. Next, G1C A4C U32C G35U C42A: 0.02; G1C C3U G21U C46A: 0.16; G1C G2C G35U A41G: 0.05. As to G1C A4C C31U C46A, the self-cleavage was 0.01. Turning to G1A C15U A16C G22A A25G C37A, the self-cleavage stood at 0.07. Turning to G1A G7A A16C G19A C31U, the self-cleavage worked out at 1.5. With G1A G19A U38C, the self-cleavage came to 2.83. As to G1A G22A C37U, the self-cleavage is 0.02. Regarding G1A U20C G30A G40U, the self-cleavage worked out at 0.02.

Turning to G1C C10G C13G A16U G27C G33A U38G, the self-cleavage is 0. To G1A U9C G19C G22A G33A A41C C45G belongs 0; to G1C G2A A14G A24U, 0.03. In the case of G1A C42U G44A, the self-cleavage came to 0.06. With G1C A12G A25U C42A, the self-cleavage came to 0.02. In the case of G1C G2U C10A U28G, the self-cleavage came to 0.04. Consider G1A C13U C31A A39C, for which the self-cleavage was 0.01. As for G1A G5U G44A, the self-cleavage came to 0.08. Next, G1C G2U U28A A41G: 0.02; G1A U9A A26C U28G: 0.4; G1A G19U A24G U28C: 0.1.

For the origin of these results see the RNAGym collection of RNA variant scans (doi:10.7554/elife.90254).
